Source: PubChem BioAssay AID2546 (National Center for Advancing Translational Sciences (NCATS), 2010)
Hit rate of the full screen: of about 310,000 compounds, about 11,000 (3.5%) were called active. The shares of active, inactive and inconclusive entries below differ from those in the screen. The call rests on the fitted dose curve; in most records, active means well fitted inhibition curve with a large enough effect; inconclusive means small, poorly fitted or top-dose-only effect, or effect the other way; inactive means flat fitted curve, though single readings scatter. No potency is given beside an inconclusive call; the fits are too rough.

assay: VP16 counterscreen qHTS for inhibitors of ROR gamma transcriptional activity; conditions: Drosophila S2 Gal4-VP16 UAS-luciferase, luminescence, 20 h; series mostly up to 53.6 µM;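 further: Gal4-VP16 expression switched on by copper sulfate through the metallothionein promoter; nearly all actives have a fitted effect of over 50% in size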
Potency means the concentration at half of the fitted maximal effect; tags describe the fitted curve by direction and shape.

SMILES	Potency
Oc1ccc(Br)cc1C=Nc1ccc(Cl)cc1	inactive
COc1ccc(CCn2c(N)c(C(=O)NCc3ccco3)c3nc4ccccc4nc32)cc1	inconclusive [activator, single point]
CC(C)CNC(=O)NC(=O)COC(=O)c1cccc(NS(=O)(=O)c2ccc(F)c(F)c2)c1	inconclusive [inhibitor, single point]
COC(=O)c1ccccc1NC(=S)NC(=O)C1CC1	inactive
O=C(/C=C/c1ccco1)NCC(=O)N/N=C/c1ccc(Cl)cc1	inconclusive [activator, partial curve, poor fit]
O=c1c(-c2cc(F)cc(F)c2)nc2cnc(N3CCNCC3)nc2n1Cc1cccs1	inconclusive [inhibitor, single point]
CC(C)CN1C(=O)c2ccc(NC(=O)c3ccco3)cc2C1=O	inconclusive [inhibitor, partial curve]
CCn1ncc(C2=NOC(C(=O)NCc3ccccc3)C2)c1C (stereo unspecified)	inactive
Cc1c(Cc2ccc3c(c2)OCO3)sc(NC(=O)C2CC2)c1C(N)=O	inconclusive [inhibitor, single point]
O=C(N/N=C/c1c(O)ccc2ccccc12)c1ccc(CO)nc1	active: 6.31 µM
COc1ccccc1OCCNS(=O)(=O)c1ccc2oc3ccccc3c2c1	inconclusive [inhibitor, single point]
CC(=O)N1CCC(=NNc2ncc(C(F)(F)F)cc2Cl)CC1	inconclusive [activator, single point]
CCC[n+]1cn(/C(C(=S)Nc2cccc(Cl)c2C)=C(/[O-])c2ccc(OC)c(OC)c2)c2ccccc21	inconclusive [inhibitor, single point]
C#CCN[C@@H]1CCc2ccccc21	inactive
Cc1cc(O)c(C(C)C)cc1N=Cc1ccccc1O	inconclusive [inhibitor, single point]
COc1ccc(OC)c(/C=N/n2c(COc3ccccc3)n[nH]c2=S)c1	inactive
CC(C)(C)OC(=O)CNC(=O)c1[nH]cnc1C(=O)N[C@@H](Cc1ccccc1)C(=O)OCc1ccccc1	inconclusive [inhibitor, single point]
CN(C)c1ccc(C2N(c3ccc(Cl)cc3)C(=O)C3CCCN32)cc1 (stereo unspecified)	inactive
C[C@](N)(COP(=O)(O)O)C(=O)O	inactive
O=C(C1CCC(=O)N(C2CCCCCC2)C1)N1CCN(c2ccccc2Cl)CC1 (stereo unspecified)	inconclusive [inhibitor, single point]
Clc1ccc2c(N/N=C/c3ccc(Br)cc3)ccnc2c1	active: 7.08 µM
CNc1ccc(Br)cc(C(=O)/C=C/c2cc(OC)ccc2OC)c1=O	inactive
O=C(NCCc1ccccn1)c1cc(-c2ccc(Cl)c(Cl)c2Cl)nc2ccccc12	inconclusive [inhibitor, single point]

SMILES	Potency
C=C(C)C1CCC2(C(=O)O)CCC3(C)C(CCC4C5(C)C(C=O)C(O)C(C)(C)C5CCC43C)C12 (stereo unspecified)	inconclusive [inhibitor, single point]
O=C(NNC1=C(C(=O)C(F)(F)F)CCC1)c1cccnc1	active: 11.2 µM
COc1ccc2nc(-c3ccc(N(C)C)cc3)sc2c1	active: 5.01 µM
Cc1ccc(-c2nnc(-c3ccc(Br)cc3)o2)o1	inconclusive [activator, single point]
S=C(NCc1ccc(Cl)cc1)NCc1ccco1	active: 10 µM
COc1ccc(CCNC(=O)C(C(=O)c2ccc(F)cc2)n2ccccc2=O)cc1OC (stereo unspecified)	inactive
O=C(c1ccc(CN2CCc3ccccc3C2)cc1)N1CCN(c2ccccc2)CC1	inconclusive [activator, single point]
COc1cc([N+](=O)[O-])cc(/C=N/NC(=O)C(C)Nc2cccc(C)c2)c1O (stereo unspecified)	active: 1.12 µM
Cc1cc2c(c(=O)o1)C(c1cccs1)C(C#N)=C(N)O2 (stereo unspecified)	inconclusive [inhibitor, single point]
CC1CCN(S(=O)(=O)c2ccc3ncn(CC(=O)N(C)Cc4ccccc4)c(=O)c3c2)CC1	inactive
CCN(CC)CCN(C(=O)c1ccc(CN2CCCCC2)o1)C(C(=O)NC1CCCCC1)c1ccc(F)cc1 (stereo unspecified)	inconclusive [inhibitor, single point]
Cc1occc1C(=O)N/N=C/c1ccc2c(c1)OCO2	inconclusive [inhibitor, partial curve]
NC(=O)C(c1ccc(Cl)cc1)c1ccc(Sc2ccc(Cl)cc2)nn1 (stereo unspecified)	active: 14.1 µM
CCOC(=O)C1=C(N)OC(CCl)=C(C#N)C1c1ccsc1 (stereo unspecified)	inconclusive [inhibitor, single point]
CCOC(=O)c1cc(C(=O)n2cc(Cl)cn2)nn1C	inconclusive [activator, single point]
CCN(CC)CCOC(=O)c1ccc(NC(=O)COc2cc(=O)n(CC)c3ccccc23)cc1	inconclusive [inhibitor, single point]
NC(=S)NNC(=O)Nc1cccc(Cl)c1	inactive
O=C1c2cccc3c([N+](=O)[O-])ccc(c23)C(=O)N1CC1CCCO1 (stereo unspecified)	active: 5.62 µM
CCOc1ccc(NC(=S)N(CCc2c(C)[nH]c3ccccc23)Cc2ccco2)cc1	inconclusive [inhibitor, single point]
CCn1cc(C(=O)O)c(=O)c2cc(F)c(N3CCN(C(=S)NC(=O)c4ccc(F)c(F)c4)CC3)cc21	inconclusive [inhibitor, partial curve, poor fit]
Cc1ccc(C)c(CN2C(=O)COc3ccccc32)c1	inactive
COc1ccc(/C=N\NC(=O)c2cc(OCC(F)(F)F)ccc2OCC(F)(F)F)cc1	inconclusive [inhibitor, single point]
Cc1ccc(-c2cn3c(n2)CCCC3)cc1	inconclusive [inhibitor, single point]
